Like-named read-outs stand apart in the source and are kept apart here.
Columns and labels:
人血清白蛋白(HSA)重组蛋白 [1] = molecular target: T1, 人血清白蛋白(HSA)重组蛋白 (human, UniProt P02768); assay: BLI (Octet QKe), antibody captured on AHC probe, HSA 60 nM in solution, 1:1 fit
T1 construct: Bought product; also called Human serum albumin; 人SA

小鼠SA重组蛋白 [2] = molecular target: T2, 小鼠SA重组蛋白 (mouse, UniProt P07724 25-608); assay: ELISA, albumin coated at 1 μg/mL, HRP-anti-human Fc
T2 construct: Bought product; also called MSA; 鼠血清白蛋白

食蟹猴SA重组蛋白 = molecular target: T3, 食蟹猴SA重组蛋白 (cynomolgus monkey, UniProt A2V9Z4 25-608, limits assumed); assay: as above
T3 construct: Bought product; also called cyno SA; Cynomolgus serum albumin

人血清白蛋白(HSA)重组蛋白 [3] = molecular target: T1, 人血清白蛋白(HSA)重组蛋白; assay: BLI (Octet QKe), antibody captured on AHC probe, HSA 60 nM in solution, 1:1 fit; remark: listed apart in the source
人血清白蛋白(HSA)重组蛋白 [4] = molecular target: T1, 人血清白蛋白(HSA)重组蛋白; assay: ELISA, albumin coated at 1 μg/mL, HRP-anti-human Fc
小鼠SA重组蛋白 [5] = molecular target: T2, 小鼠SA重组蛋白; assay: ELISA, mouse SA coated at 1 μg/mL, detection with HRP-anti-human Fc

B1: 嵌合抗体ch2H2 (Fc fusion)
chain: EVQLQESGGGLVQPGGSLRLSCAASGFTFSNYGMSWFRQAPGKALEWVSGIYSDGSNTYYADSVKGRFTISRDNAKNTLYLQMNSLKSEDTALYYCATTYNVQFAATAGIKLTDFDYRGQGTQVTVSSAS[letters of human IgG1 Fc with changes omitted]
In the case of B1, the Kd (人血清白蛋白(HSA)重组蛋白 [1]) is reported as 16.2 nM.

B2: 嵌合抗体ch2H1 (Fc fusion)
chain: EVQLQESGGGSVQAGGSLRLSCAASGGSYRPNCVAWFRQVPGKEREGVGAIYTDSGISGTTYYADSVKGRFTISQDVTKNMVYLQMNSLKPEDTAMYYCAADWKYDGSRCGLEVEYDSRGQGTQVTVSSAS[letters of human IgG1 Fc with changes omitted]
For B2, the Kd (人血清白蛋白(HSA)重组蛋白 [1]) was 27.9 nM.

B3: 嵌合抗体ch2H4 (Fc fusion)
chain: EVQLQESGGGSVQAGGSLRLSCAASLVSYRPNCVAWFRQVPGKEREGVAAIYTDSGLSGTTYYADSVKGRFTISQDDTKNMVYLQMNSLKPEDAAMYYCAADWKYDSTRCGLEVEYDSRGQGTQVTVSSAS[letters of human IgG1 Fc with changes omitted]
B3 showed a Kd (人血清白蛋白(HSA)重组蛋白 [1]) of 7.79 nM.

B4: 嵌合抗体ch2MG6 (Fc fusion)
chain: QVQLQESGGGLVQAGGSLRLSCAASGSTYPTAYIAWFRQAPGKEREGVAGIYTVGGSTFYTDSVKGRFTISRDNAKNTVYLLMNSLKPEDTAMYFCAAGRTDTAKLRDPRSFGYWGQGTQVTVSSAS[letters of human IgG1 Fc with changes omitted]
For B4, the Kd (人血清白蛋白(HSA)重组蛋白 [1]) was 0.579 nM.

B5: 人源化抗体hz2MG6 (Fc fusion)
chain: EVQLVESGGGLVQAGGSLRLSCAASGSTYPTAYIAWFRQAPGKEREGVAGIYTVGGSTFYTDSVKGRFTISRDNAKNSLYLQMNSLRAEDTAVYFCAAGRTDTAKLRDPRSFGYWGQGTLVTVSSAS[letters of human IgG1 Fc with changes omitted]
In the case of B5, the binding result (小鼠SA重组蛋白 [2]) is reported as “binds”, the binding result (食蟹猴SA重组蛋白) is reported as “binds” and the Kd (人血清白蛋白(HSA)重组蛋白 [3]) is reported as 1.72 nM.

B6: 人源化抗体hzH4 (Fc fusion)
chain: EVQLVESGGGLVQPGGSLRLSCAASGVSYRPNCVAWFRQAPGKEREGVAAIYTDSGLSGTTYYADSVKGRFTISRDNAKNSLYLQMNSLRAEDTAVYYCAADWKYDSTRCGLEVEYDSWGQGTLVTVSSAS[letters of human IgG1 Fc with changes omitted]
notes: also called 人源化2H4
B6: binds (人血清白蛋白(HSA)重组蛋白 [4]); binds (食蟹猴SA重组蛋白); no binding (tested: 起始浓度为1μg/mL) (小鼠SA重组蛋白 [5]).

From patent CN115433274A (BEIJING KENUO XINCHENG TECH CO LTD, dated 2022)
